# Laboratory results: PMC4336329 (PLoS ONE, 2015)
# Among all 310,000 compounds or so, about 2,200 (0.71%) showed an effect of 50% or more. The effect is printed as a negative number. Some of the results follow.
# Target: human ether-à-go-go-related gene (hERG) potassium channel (human, UniProt Q12809)
# Assay: primary screen, population patch clamp on CHO cells stably expressing hERG
# human ether-à-go-go-related gene (hERG) potassium channel, sequence (Q12809 whole entry, looked up): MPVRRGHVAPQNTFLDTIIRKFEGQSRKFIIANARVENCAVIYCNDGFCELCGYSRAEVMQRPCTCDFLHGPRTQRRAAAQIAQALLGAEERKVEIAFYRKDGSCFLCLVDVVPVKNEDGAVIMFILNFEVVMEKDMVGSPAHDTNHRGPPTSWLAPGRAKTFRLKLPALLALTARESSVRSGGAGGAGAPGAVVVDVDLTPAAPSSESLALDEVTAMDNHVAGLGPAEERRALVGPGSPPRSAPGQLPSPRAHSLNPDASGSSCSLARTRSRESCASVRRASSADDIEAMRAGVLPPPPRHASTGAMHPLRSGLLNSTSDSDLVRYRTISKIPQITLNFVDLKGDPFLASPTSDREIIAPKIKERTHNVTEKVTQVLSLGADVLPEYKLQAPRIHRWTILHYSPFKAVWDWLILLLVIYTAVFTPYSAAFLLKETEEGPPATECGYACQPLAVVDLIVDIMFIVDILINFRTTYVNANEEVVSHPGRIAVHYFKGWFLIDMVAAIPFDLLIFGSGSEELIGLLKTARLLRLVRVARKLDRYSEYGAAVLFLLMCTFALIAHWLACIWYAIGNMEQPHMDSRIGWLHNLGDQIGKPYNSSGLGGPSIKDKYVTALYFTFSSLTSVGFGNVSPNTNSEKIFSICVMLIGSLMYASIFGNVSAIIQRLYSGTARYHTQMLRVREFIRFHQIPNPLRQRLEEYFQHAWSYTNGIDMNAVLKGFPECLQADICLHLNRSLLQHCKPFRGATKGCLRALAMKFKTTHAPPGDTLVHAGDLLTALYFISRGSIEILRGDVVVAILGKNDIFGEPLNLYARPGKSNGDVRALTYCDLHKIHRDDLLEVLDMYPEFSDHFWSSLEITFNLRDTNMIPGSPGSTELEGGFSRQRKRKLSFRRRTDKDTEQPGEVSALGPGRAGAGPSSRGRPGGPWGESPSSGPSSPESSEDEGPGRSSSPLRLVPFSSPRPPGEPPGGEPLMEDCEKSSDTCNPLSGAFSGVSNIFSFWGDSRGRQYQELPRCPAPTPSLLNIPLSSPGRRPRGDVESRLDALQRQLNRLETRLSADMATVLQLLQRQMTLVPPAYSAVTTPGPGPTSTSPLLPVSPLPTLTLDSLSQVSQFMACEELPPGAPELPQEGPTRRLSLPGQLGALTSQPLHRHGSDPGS
row,Compound,"hERG current change (%, negative = inhibition) at 1uM"
1,Cc1c(Cl)cccc1NC(CC(=O)c1ccccc1)C(=O)OCC(=O)c1cccs1 (centres unmarked),2.81%
2,COc1cc(C(=O)Nc2ccc(NC(=O)c3ccco3)nc2)cc(OC)c1OC,11.4%
3,Cc1cc(NC(=O)C2CCCO2)ccc1Br (centres unmarked),-0.258%
4,c1ccc2c(-c3cc(C4CCNCC4)[nH]n3)cccc2c1,1.18%
5,Cc1cccc(C(=O)N[C@@H](C)C(=O)N2CCN(c3ncccn3)CC2)c1,9.3%
6,CC(C)NS(=O)(=O)c1ccc(CCC(=O)Nc2ccc3c(c2)OCO3)cc1,5.87%
7,O=C(N/N=C\c1ccc(Cl)s1)c1ccc(Cn2cccn2)o1,-7.96%
8,Cc1cc(Cl)ccc1OCC(=O)n1cc(C(=O)c2cc(Cl)ccc2O)cn1,11.2%
9,Cc1ccccc1NC(=O)c1c(F)c(F)c(F)c(F)c1F,11.1%
10,CC(C)CCNC(=O)C(c1cccnc1)N(CCc1ccccc1)C(=O)Cn1nnc2ccccc21 (centres unmarked),3.22%
11,CCCCC/S(CC1CC1(Cl)Cl)=N\S(=O)(=O)c1ccc(C)cc1 (centres unmarked),17.5%
12,O=C(CCl)c1ccc2c(c1)CCN2C(=O)C1CCCCC1,18.5%
13,O=C(Cc1cccc2ccccc12)N/N=C/c1ccc2cccc(O)c2n1,9.14%
14,Cc1cc(C)n(CC(O)CN(c2cccc([N+](=O)[O-])c2)S(=O)(=O)c2ccccc2)n1 (centres unmarked),17.2%
15,O=C(CNC(=O)c1ccc(S(=O)(=O)N2CCCC2)cc1)N/N=C/c1ccccc1,-0.632%
16,COc1cccc(-n2c(SCC(=O)NCCc3ccccc3)nnc2-c2ccoc2C)c1,-50.4%
17,CCCSc1sc(C(=O)OC)c(-c2cccs2)c1C#N,-9.27%
18,CC1=NN(c2ccccc2)C(=O)/C1=C/c1c(O)[nH]c(=S)[nH]c1=O,12.6%
19,CCC(=O)c1ccc(OCC(=O)Nc2cc(S(=O)(=O)N3CCCCC3)ccc2OC)cc1,4.24%
20,Cc1cccc(CC2CC(=O)N(C3CCCCC3)C2=O)c1 (centres unmarked),7.75%
21,O=C(CN1C(=O)NC2(CCCC2)C1=O)OCCOc1ccc(Cl)cc1,8.78%
22,COCCn1cnnc1SCC(=O)Nc1sc2c(c1C#N)CCC2,13.2%

row,Compound,"hERG current change (%, negative = inhibition) at 1uM"
1,CC1Nc2ncnc(N3CCN(c4ccccc4)CC3)c2N(Cc2ccccc2)C1=O.O=C(O)C(F)(F)F (centres unmarked),11.4%
2,CS(=O)(=O)N(CC(=O)NCc1ccc2c(c1)OCO2)Cc1ccc(Cl)cc1,-20.3%
3,COc1ccc(CC2(CO)CCN(Cc3ccc4c(c3)CCO4)CC2)cc1,-24.2%
4,COc1ccc(S(=O)(=O)N2CCCCCC2)cc1N(C)S(=O)(=O)c1ccccc1,2.28%
5,Cc1cc(C)cc(NC(=S)/N=C(\N)Nc2nc(C)c3ccccc3n2)c1,13.4%
6,Cc1ccc(CN2C(=O)CSc3ccc(C(=O)NCCN4CCOCC4)cc32)cc1,7.08%
7,Cn1nc(NC(=O)C2CCC2C(=O)O)c2c(F)cccc21 (centres unmarked),3.69%
8,CC(C)C(NS(=O)(=O)c1cccs1)C(=O)N(C)Cc1ccccc1 (centres unmarked),2.73%
9,CCCCCN(C(=O)CCC(=O)OCC(=O)Nc1ccc(C)cc1F)c1c(N)n(CCCC)c(=O)[nH]c1=O,10.5%
10,CC1(C)CC(=O)C=C(/C=C/c2ccccc2)C1,4.32%
11,Brc1ccc(CSc2ccc(-c3ccco3)nn2)cc1,18.1%
12,CN1C(=O)/C(=C\c2ccc(N3CCCCC3)o2)C(=O)NC1=S,13%
13,CCOc1cc(/C=N/NC(=O)CCCC(=O)NC2CCCCC2)ccc1O,10.3%
14,COC(=O)c1sc2nc(-c3ccccc3)c3c(c2c1N)CCCC3,4.42%
15,Cc1c(Cl)cccc1NC(=O)CSc1nc(=O)n(CCCN2CCOCC2)c2c1CCC2,-3.4%
16,COc1ccc(CCNc2ccc(C(=O)O)cc2[N+](=O)[O-])cc1OC,23.9%
17,Cc1onc(C(=O)N2CCOCC2)c1[N+](=O)[O-],18.4%
18,O=C1CCCC2=C1C(c1cn(-c3ccccc3)nc1-c1cccs1)c1c([nH]c(=O)[nH]c1=O)N2 (centres unmarked),11.9%
19,Cc1nn(-c2ccccc2)c(C)c1NC(=O)COC(=O)c1cc([N+](=O)[O-])ccc1NCCO,9.4%
20,O=C1C2C3C=CC(C4CC34)C2C(=O)N1/N=C/c1ccc([N+](=O)[O-])s1 (centres unmarked),4.77%
21,COc1ccccc1NC(=O)Nc1nc(CC(=O)NC2CCCC2)cs1,-2.51%
22,Cc1c(O)ccc2c(=O)c(-c3nncn3-c3ccccc3)coc12,16.7%

row,Compound,"hERG current change (%, negative = inhibition) at 1uM"
1,O=C(Cc1ccc(S(=O)(=O)N2CCCCC2)s1)Nc1ccc(F)c(F)c1,8.33%
2,NC1=NC(=O)/C(=C/c2cn(Cc3ccccc3)c3ccccc23)S1,0.743%
3,CCC(=O)Nc1cccc(C2=NOC3(C2)C[C@@H](C(N)=O)N(C(=O)COc2ccc(Cl)cc2)C3)c1 (some centres unmarked),13.1%
4,COc1ccc(-c2nc(CSCC(=O)NC3CCCc4ccccc43)c(C)o2)cc1OC (centres unmarked),10.1%
5,COc1ccc(CN2CCOCCOCCN(Cc3ccc(OC)cc3)CCOCCOCC2)cc1,-84.1%
6,COC(=O)[C@H](CCSC)NC(=O)Nc1ccc(C(C)=O)cc1,11.9%
7,Cc1ccc(S(=O)(=O)NCC(=O)OCC(=O)c2c(N)n(C)c(=O)n(C)c2=O)cc1,20.1%
8,COC(=O)c1sc(NC(=O)COc2ccc(C)cc2)nc1C,11.3%
9,CCCCN(C)CCCNC(=O)c1ccc2c(c1)N(CC)C(=O)c1ccccc1S2=O (centres unmarked),21%
10,CN1CCC(Oc2ccccc2Sc2ccc(C(F)(F)F)cc2)CC1.O=C(O)C(=O)O,-8.32%
11,CC(=O)c1cc2c(cc1NC(=O)c1ccc(C)cc1)OCCO2,7.48%
12,COC(=O)CSc1nc(N)c(C#N)c(-c2ccco2)c1C#N,9.92%
13,CC(C)CN1C(=O)C(=O)N(CC(=O)NC2CCCc3ccccc32)C1=O (centres unmarked),5.68%
14,Cn1c(Cn2nnc3ccccc32)nnc1SCC(=O)Nc1nccs1,10.6%
15,Cc1cc(=O)[nH]c(N2CCN(Cc3ccccc3)CC2)n1,2.91%
16,COc1ccc(NC(=S)c2ccncc2)cc1,17%
17,CC(C)(C)C1CCC(C(=O)Nc2ccccc2N2CCOCC2)CC1 (centres unmarked),12%
18,NS(=O)(=O)c1ccc(CCNC(=O)C2CCCCC2)cc1,16.6%
19,C=CCN1CCN(C(=O)CCc2ccccc2)CC1,15.5%
20,CC(C)NC(=O)NC(=O)COc1ncnc2sccc12,5.46%
21,CSc1nsc(/C=C/Nc2ccc(C)cc2)c1C#N,10.5%
22,COc1ccc(C(=O)NCc2ccc3c(c2)OCO3)cc1S(=O)(=O)N(C)Cc1ccccc1,6.12%

row,Compound,"hERG current change (%, negative = inhibition) at 1uM"
1,CCN(CC)C(=O)c1sc2c(c1C)c(=O)n(-c1ccc(C)c(C)c1)c(=O)n2CC(=O)NCC1CCCO1 (centres unmarked),-4.87%
2,CCCn1c(CCC(=O)O)nc2cc(S(N)(=O)=O)ccc21,12.3%
3,CCN(CC(=O)Nc1c(F)cccc1F)C(=O)c1cccc(S(=O)(=O)N2CCCCCC2)c1,5.71%
4,CCn1ncc([N+](=O)[O-])c1C(=O)Nc1ccc(C(=O)N2CCCCC2)cc1,1.34%
5,Cc1ccc(SCc2nc(-c3ccncc3)no2)cc1,3.02%
6,CCc1ccc(-c2nc(SCC(=O)N(CCOC)c3c(N)n(Cc4ccccc4)c(=O)[nH]c3=O)n[nH]2)cc1,10.9%
7,Cc1cccc(C(=O)OCC(=O)c2c(N)n(CC(C)C)c(=O)n(C)c2=O)c1O,-8.55%
8,C=CCCC(=O)Nc1nc(C)c(-c2csc(Nc3cc(OC)ccc3OC)n2)s1,-2.25%
9,COc1ccc(C(C(=O)NC2CCCC2)N(C(=O)c2ccoc2C)c2ccccc2)cc1 (centres unmarked),16.4%
10,O=C(CCC(=O)N1CCN(c2ccc(F)cc2)CC1)c1ccc(Cl)cc1,0.0178%
11,O=C(NCCc1ccc2c(c1)OCO2)C1CCN(S(=O)(=O)c2ccc(Cl)cc2)CC1,0.439%
12,COCCn1c(C)cc(C(=O)CSc2ccc(NC(C)=O)cc2)c1C,15.4%
13,CN(C)c1ccc(/C=C/C(=O)c2cccc(Br)c2)cc1,2.06%
14,N#Cc1c(-c2ccccc2)ccnc1N1CCOCC1,11.1%
15,CCCCNC(=O)CSc1nc2c(sc(=S)n2-c2cc(Cl)ccc2OC)c(=O)[nH]1,14.8%
16,COc1ccc(N2CCN(C(=O)CSc3nnc4n3C(C)(C)Cc3ccccc3-4)CC2)cc1,-0.619%
17,CCN(CC)S(=O)(=O)c1ccc(S(=O)(=O)Nc2cc3c(cc2C(C)=O)OCO3)cc1,7.6%
18,CC(=O)c1ccc(OCC(O)CN2CCN(CCO)CC2)cc1.Cl (centres unmarked),12.3%
19,Cc1ccc(/C=N/n2c(-c3ccccn3)n[nH]c2=S)o1,13.5%
20,CC(C)(O)C#Cc1ccc([C@@H]2C[C@H]3CN(c4ccccc4)C(=O)[C@]34CCCN24)s1,11%
